# Measurements from the supplement of paper PMC4604168 (melanoma cell lines).
# Some of the results follow. Repeats are few or missing, and single values can be far off.
# Experiments:
# Test in all cases: cell count relative to DMSO control; melanoma cells; higher = more viable cells
# Details in all cases: library dose: standard library concentration; 72 h
# G361 = test system: G361
# IPC-298 = test system: IPC-298
# IST-MEL1 = test system: IST-MEL1
# LB2518-MEL = test system: LB2518-MEL
# LOXIMVI = test system: LOXIMVI
# MEL-HO = test system: MEL-HO
# MZ2-MEL = test system: MZ2-MEL
# MeWo = test system: MeWo
# RPMI7951 = test system: RPMI7951
# RVH-421 = test system: RVH-421
# SkMel28 = test system: SkMel28
# SkMel2 = test system: SkMel2
# SkMel30 = test system: SkMel30
# SkMel5 = test system: SkMel5
# UACC257 = test system: UACC257
# UACC62 = test system: UACC62
# WM115 = test system: WM115
# WM1716 = test system: WM1716
# WM3526 = test system: WM3526
# WM1745 = test system: WM1745
# 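Further: cells treated in 1,536-well plates, then fixed and DAPI-stained, with nuclei counted from automated high-throughput microscope images.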
compound,measurement,setting,value
"NC1(c2ccc(-c3nc4ccn5c(=O)[nH]nc5c4cc3-c3ccccc3)cc2)CCC1 + Cc1cc(SCc2sc(-c3ccc(C(F)(F)F)c(F)c3)nc2C)ccc1OCC(=O)O [GW0742] (first compound 2 µM, partner dose 10 µM)",cell count,G361,96.1%
same,cell count,IPC-298,91.2%
same,cell count,IST-MEL1,91.1%
same,cell count,LB2518-MEL,78.1%
same,cell count,LOXIMVI,89.2%
same,cell count,MEL-HO,76%
same,cell count,MZ2-MEL,98.4%
same,cell count,MeWo,82%
same,cell count,RPMI7951,103%
same,cell count,RVH-421,70.8%
same,cell count,SkMel28,65.4%
same,cell count,SkMel2,76.8%
same,cell count,SkMel30,95.7%
same,cell count,SkMel5,80.3%
same,cell count,UACC257,92.4%
same,cell count,UACC62,74.4%
same,cell count,WM115,77.6%
same,cell count,WM1716,70.1%
same,cell count,WM3526,81.9%
"Cn1c(=O)n(-c2ccc(C(C)(C)C#N)cc2)c2c3cc(-c4cnc5ccccc5c4)ccc3ncc21 + N.N.[Cl][Pt][Cl] [cisplatin] (first compound 0.02 µM, partner dose 8 µM)",cell count,G361,57.1%
same,cell count,IPC-298,88%
same,cell count,IST-MEL1,75.1%
same,cell count,LOXIMVI,40.6%
same,cell count,MEL-HO,59.1%
same,cell count,MeWo,61.4%
same,cell count,RPMI7951,71.7%
same,cell count,RVH-421,59.5%
same,cell count,SkMel28,58.5%
same,cell count,SkMel2,69.8%
same,cell count,SkMel30,67.4%
same,cell count,SkMel5,67.6%
same,cell count,UACC257,81.5%
same,cell count,UACC62,60.7%
same,cell count,WM115,62.2%
same,cell count,WM1716,77.8%
same,cell count,WM1745,96.9%
same,cell count,WM3526,71.4%
"OCc1c[nH]c2ccccc12 [Indole-3-carbinol] + C/C(O)=C(\C#N)C(=O)Nc1cc(Br)ccc1Br [LFM-A13] (first compound 4 µM, partner dose 10 µM)",cell count,G361,97.3%
same,cell count,IPC-298,94.3%
same,cell count,IST-MEL1,90.4%
same,cell count,LB2518-MEL,94.1%
same,cell count,LOXIMVI,28.8%
same,cell count,MEL-HO,93.9%
same,cell count,MZ2-MEL,98.3%
same,cell count,MeWo,75.3%
same,cell count,RPMI7951,73.8%
same,cell count,RVH-421,106%
same,cell count,SkMel28,72.6%
same,cell count,SkMel2,83.8%
same,cell count,SkMel30,102%
same,cell count,SkMel5,110%
same,cell count,UACC257,90.9%
same,cell count,UACC62,166%
same,cell count,WM115,119%
same,cell count,WM1716,118%
same,cell count,WM3526,97.1%
"C=C(c1ccc(C(=O)O)cc1)c1cc2c(cc1C)C(C)(C)CCC2(C)C [Bexarotene] + O=C(Oc1ccc([N+](=O)[O-])cc1)N1CCC(C(O)(c2ccc3c(c2)OCO3)c2ccc3c(c2)OCO3)CC1 [JZL184] (first compound 10 µM, partner dose 5 µM)",cell count,G361,85.1%
same,cell count,IPC-298,87.3%
same,cell count,IST-MEL1,98%
same,cell count,LB2518-MEL,154%
same,cell count,LOXIMVI,106%
same,cell count,MEL-HO,87.1%
same,cell count,MZ2-MEL,103%
same,cell count,MeWo,79.1%
same,cell count,RPMI7951,68.7%
same,cell count,RVH-421,95.5%
same,cell count,SkMel28,77.5%
same,cell count,SkMel2,94%
same,cell count,SkMel30,98.1%
same,cell count,SkMel5,79.1%
same,cell count,UACC257,76.5%
same,cell count,UACC62,81.7%
same,cell count,WM115,126%
same,cell count,WM1716,77%
same,cell count,WM3526,100%
"C[C@@H](Oc1cc(-c2cnn(C3CCNCC3)c2)cnc1N)c1c(Cl)ccc(F)c1Cl [Crizotinib] + C/C(O)=C(\C#N)C(=O)Nc1cc(Br)ccc1Br [LFM-A13] (first compound 1 µM, partner dose 10 µM)",cell count,G361,108%
same,cell count,IPC-298,102%
same,cell count,IST-MEL1,98.5%
same,cell count,LB2518-MEL,84%
same,cell count,LOXIMVI,82.5%
same,cell count,MEL-HO,101%
same,cell count,MZ2-MEL,105%
same,cell count,MeWo,71.3%
same,cell count,RPMI7951,82.4%
same,cell count,RVH-421,104%
same,cell count,SkMel28,63.9%
same,cell count,SkMel2,109%
same,cell count,SkMel30,85.4%
same,cell count,SkMel5,72%
same,cell count,UACC257,87.3%
same,cell count,UACC62,80.4%
same,cell count,WM115,60%
same,cell count,WM1716,77.8%
same,cell count,WM3526,96.7%
"Cc1ccc(Nc2nccc(N(C)c3ccc4c(C)n(C)nc4c3)n2)cc1S(N)(=O)=O [Pazopanib] + C/C(O)=C(\C#N)C(=O)Nc1cc(Br)ccc1Br [LFM-A13] (first compound 2 µM, partner dose 10 µM)",cell count,G361,97.8%
same,cell count,IPC-298,92.7%
same,cell count,IST-MEL1,100%
same,cell count,LB2518-MEL,102%
same,cell count,LOXIMVI,90.4%
same,cell count,MEL-HO,104%
same,cell count,MZ2-MEL,93.4%
same,cell count,MeWo,77.6%
same,cell count,RPMI7951,74.8%
same,cell count,RVH-421,112%
same,cell count,SkMel28,85.3%
same,cell count,SkMel2,104%
same,cell count,SkMel30,105%
same,cell count,SkMel5,62.6%
same,cell count,UACC257,88.1%
same,cell count,UACC62,57.9%
same,cell count,WM115,98.6%
same,cell count,WM1716,74.9%
same,cell count,WM3526,86.6%
"CNC(=O)c1cc(Oc2ccc(NC(=O)Nc3ccc(Cl)c(C(F)(F)F)c3)cc2)ccn1 [sorafenib] + O=C(Oc1ccc([N+](=O)[O-])cc1)N1CCC(C(O)(c2ccc3c(c2)OCO3)c2ccc3c(c2)OCO3)CC1 [JZL184] (first compound 2 µM, partner dose 5 µM)",cell count,G361,107%
same,cell count,IPC-298,90.1%
same,cell count,IST-MEL1,110%
same,cell count,LB2518-MEL,92.7%
same,cell count,LOXIMVI,98.5%
same,cell count,MEL-HO,89.4%
same,cell count,MZ2-MEL,104%
same,cell count,MeWo,101%
same,cell count,RPMI7951,85.6%
same,cell count,RVH-421,100%
same,cell count,SkMel28,92.7%
same,cell count,SkMel2,84%
same,cell count,SkMel30,98.5%
same,cell count,SkMel5,80.4%
same,cell count,UACC257,74.9%
same,cell count,UACC62,79.5%
same,cell count,WM115,74.2%
same,cell count,WM1716,106%
same,cell count,WM3526,76.6%
"C[C@@H](Oc1cc(-c2cnn(C3CCNCC3)c2)cnc1N)c1c(Cl)ccc(F)c1Cl [Crizotinib] + O=C(Oc1ccc([N+](=O)[O-])cc1)N1CCC(C(O)(c2ccc3c(c2)OCO3)c2ccc3c(c2)OCO3)CC1 [JZL184] (first compound 1 µM, partner dose 5 µM)",cell count,G361,105%
same,cell count,IPC-298,109%
same,cell count,IST-MEL1,97.7%
same,cell count,LB2518-MEL,82%
same,cell count,LOXIMVI,125%
same,cell count,MEL-HO,97.6%
same,cell count,MZ2-MEL,98.7%
same,cell count,MeWo,75.5%
same,cell count,RPMI7951,75.8%
same,cell count,RVH-421,84.6%
same,cell count,SkMel28,74.8%
same,cell count,SkMel2,87%
same,cell count,SkMel30,122%
same,cell count,SkMel5,83.6%
same,cell count,UACC257,77%
same,cell count,UACC62,70.5%
same,cell count,WM115,64.1%
same,cell count,WM1716,76.1%
same,cell count,WM3526,87.7%
"CC(=O)O[C@@]12CO[C@@H]1C[C@H](O)[C@@]1(C)C(=O)[C@H](O)C3=C(C)[C@@H](OC(=O)[C@H](O)[C@@H](NC(=O)OC(C)(C)C)c4ccccc4)C[C@@](O)([C@@H](OC(=O)c4ccccc4)[C@H]21)C3(C)C [Docetaxel] + Cc1cc(SCc2sc(-c3ccc(C(F)(F)F)c(F)c3)nc2C)ccc1OCC(=O)O [GW0742] (first compound 0.0005 µM, partner dose 10 µM)",cell count,G361,16.2%
same,cell count,IPC-298,52.5%
same,cell count,IST-MEL1,41.6%
same,cell count,LB2518-MEL,47.9%
same,cell count,LOXIMVI,72.2%
same,cell count,MEL-HO,47.4%
same,cell count,MZ2-MEL,50.5%
same,cell count,MeWo,28.9%
same,cell count,RPMI7951,19.2%
same,cell count,RVH-421,47%
same,cell count,SkMel28,14.3%
same,cell count,SkMel2,19.1%
same,cell count,SkMel30,38.6%
same,cell count,SkMel5,28.8%
same,cell count,UACC257,61%
same,cell count,UACC62,50.5%
same,cell count,WM115,48.5%
same,cell count,WM1716,36.9%
same,cell count,WM3526,42.4%
"O=C(/C=C/c1cccnc1)NCCCCC1CCN(C(=O)c2ccccc2)CC1 + Cc1cc(SCc2sc(-c3ccc(C(F)(F)F)c(F)c3)nc2C)ccc1OCC(=O)O [GW0742] (first compound 0.05 µM, partner dose 10 µM)",cell count,G361,7.78%
same,cell count,IPC-298,49.1%
same,cell count,IST-MEL1,82.8%
same,cell count,LB2518-MEL,72.9%
same,cell count,LOXIMVI,87.2%
same,cell count,MEL-HO,59.9%
same,cell count,MZ2-MEL,44.6%
same,cell count,MeWo,103%
same,cell count,RPMI7951,104%
same,cell count,RVH-421,64.7%
same,cell count,SkMel28,70.9%
same,cell count,SkMel2,24.9%
same,cell count,SkMel30,96.9%
same,cell count,SkMel5,118%
same,cell count,UACC257,99.2%
same,cell count,UACC62,110%
same,cell count,WM115,93.3%
same,cell count,WM1716,96.1%
same,cell count,WM3526,99.5%
"CS(=O)(=O)c1ccc(C(=O)Nc2ccc(Cl)c(-c3ccccn3)c2)c(Cl)c1 [vismodegib] + C/C(O)=C(\C#N)C(=O)Nc1cc(Br)ccc1Br [LFM-A13] (first compound 5 µM, partner dose 10 µM)",cell count,G361,86.1%
same,cell count,IPC-298,112%
same,cell count,IST-MEL1,101%
same,cell count,LB2518-MEL,123%
same,cell count,LOXIMVI,94.4%
same,cell count,MEL-HO,98.7%
same,cell count,MZ2-MEL,97.6%
same,cell count,MeWo,114%
same,cell count,RPMI7951,80.7%
same,cell count,RVH-421,119%
same,cell count,SkMel28,87.7%
same,cell count,SkMel2,95.7%
same,cell count,SkMel30,116%
same,cell count,SkMel5,99.9%
same,cell count,UACC257,109%
same,cell count,UACC62,72.7%
same,cell count,WM115,96.9%
same,cell count,WM1716,129%
same,cell count,WM3526,88.2%
"CCCCCCCCCCCCCCCCCCOP(=O)([O-])OC1CC[N+](C)(C)CC1 [Perifosine] + Cc1cc(SCc2sc(-c3ccc(C(F)(F)F)c(F)c3)nc2C)ccc1OCC(=O)O [GW0742] (first compound 2 µM, partner dose 10 µM)",cell count,G361,99.3%
same,cell count,IPC-298,97.3%
same,cell count,IST-MEL1,88.2%
same,cell count,LB2518-MEL,98.7%
same,cell count,LOXIMVI,80.6%
same,cell count,MEL-HO,90.6%
same,cell count,MZ2-MEL,110%
same,cell count,MeWo,64.5%
same,cell count,RPMI7951,27.3%
same,cell count,RVH-421,90.3%
same,cell count,SkMel28,67.5%
same,cell count,SkMel2,96.2%
same,cell count,SkMel30,85.2%
same,cell count,SkMel5,93.4%
same,cell count,UACC257,111%
same,cell count,UACC62,91.6%
same,cell count,WM115,113%
same,cell count,WM1716,94.9%
same,cell count,WM3526,89.1%
